# Several values for one entry are separate records, joined by “and”; a condition that tells them apart may be missing. Identical values can stand only once. Inconclusive results, whose numbers are uncertain, are shown with a selection of clear calls. For some assays here: A potency beside an inconclusive call is a rough fit, not a confirmed value. Activity calls are given as the source filed them. Calls follow the shape of the dose curve; as a rule, active = well fitted curve in the direction sought with a large enough effect; inconclusive = small, poorly fitted or top-dose-only effect, or another doubt; inactive = no such curve, though single readings can be large; an effect the other way counts as inactive or inconclusive.
# Assays:
# [1] = biological target: Cytochrome P450 2D6 (Homo sapiens) (UniProt P10635); test: qHTS Assay for Inhibitors and Substrates of Cytochrome P450 2D6 (AID 891);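 also: luciferin methyl ether substrate demethylated by CYP2D6 with NADPH regeneration; nearly all actives have a fitted effect of over 60% in size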; also: potency is read from the fitted curve at half-maximal effect
# Outline: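 Human CYP2D6 (5 nM) with 30 uM Luciferin-ME EGE (at Km) in 100 mM KPO4, compound preincubated 10 min, then NADPH regeneration system for 60 min at room temperature. Luciferin read by luminescence; normalized to 1.43 uM quinidine.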
# [2] = biological target: Pyruvate kinase (Leishmania mexicana) (UniProt Q27686); test: qHTS Validation Assay for Inhibitors of Leishmania Mexicana Pyruvate Kinase (AID 945); also: potency is read from the fitted curve at half-maximal effect
# Outline: (§1)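 Read-out: luminescence from PKLight stop/detection reagent, data normalized to DMSO. Reaction: 0.2 nM E451W LmPYK, 0.5 mM PEP, 0.1 mM ADP, pH 7.2, 1 h room temperature.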
# [3] = biological target: Pyruvate kinase (Leishmania mexicana) (UniProt Q27686); test: qHTS Validation Assay for Activators of Leishmania Mexicana Pyruvate Kinase (AID 959)
# Outline: as §1
# Furin (Homo sapiens) = Furin (Homo sapiens) (UniProt P09958); test: Furin counterscreen qHTS for Zika virus inhibitors (AID 1347149); also: nearly all actives have a fitted effect of over 70% in size; also: potency is read from the fitted curve at half-maximal effect
# Outline: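 Fluorogenic cleavage of BOC-RVRR-AMC (2 microM final, Km ~15 µM) was monitored (ex 340, em 450 nm) at 37C after 15 min RT preincubation of 5 nM furin with compounds in HEPES pH 7.0 buffer with CaCl2 and Triton X-100. Percent inhibition was fitted to a 4-parameter Hill curve.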
# [4] = biological target: Guanine nucleotide-binding protein G(i) subunit alpha-1 (Homo sapiens) (UniProt P63096); test: qHTS Assay for Inhibitors of RGS12 GoLoco Motif Activity (Green Fluorophore) (AID 879); also: potency is read from the fitted curve at half-maximal effect
# Outline: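 Fluorescence polarization assay: 50 nM Gαi1 with 10 nM FITC-labeled RGS12 GoLoco peptide in 10 mM Tris pH 7.5, 150 mM NaCl, 0.1 mM GDP, 0.05% NP40, 10 min at room temperature with compound.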
# [5] = Primary qHTS for inhibitors of nuclear receptor binding SET domain protein 2 (NSD2) in an isogenic RCH-ACV NSD2 p.E1099K mutant (9B) (AID 1645876); details: activity change, negative = viability loss: at 44.9 µM (top of the series) unless noted; also: nearly all actives have a fitted effect of over 70% in size; also: potency is read from the fitted curve at half-maximal effect
# [6] = qHTS of Nrf2 Activators: LOPAC Validation (AID 624149); also: potency is read from the fitted curve at half-maximal effect
# Outline: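 Luminescence read-out of ARE-luciferase activation: AREc32_Fluc cells treated with compounds for 24 hr at 37 deg C, then lysed with Steady-Glo for 30 min at room temperature before reading.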
# [7] = biological target: Rap guanine nucleotide exchange factor 3 (Homo sapiens) (UniProt O95398); test: Confirmatory qHTS for antagonist of cAMP-regulated guanine nucleotide exchange factor 3 (EPAC1) (AID 1645880); also: potency is read from the fitted curve at half-maximal effect; nearly all actives have a fitted effect of over 55% in size
# Outline: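 Nucleotide exchange uses 100 nM EPAC1, 250 nM RAP1B-BODIPY-GDP and 50 uM GDP, with compounds in a concentration-titration series. After 5 min at room temperature, fluorescence (480 nm ex/540 nm em) is read every 5 min for 30 min. Data are normalized to control ATA and DMSO.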
# [8] = biological target: Rap guanine nucleotide exchange factor 4 (Homo sapiens) (UniProt Q8WZA2); test: Confirmatory qHTS for antagonist of cAMP-regulated guanine nucleotide exchange factor 4 (EPAC2) (AID 1645885); also: potency is read from the fitted curve at half-maximal effect; nearly all actives have a fitted effect of over 25% in size
# [9] = Counterscreen qHTS for small molecule stabilizers of the endoplasmic reticulum resident proteome: GLuc-NoTag assay (AID 1508627); also: potency is read from the fitted curve at half-maximal effect
# Outline: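 SH-SY5Y cells stably expressing constitutively secreted GLuc without SERCaMP tag, exposed to compound for 19 hr, then to 100 nM thapsigargin for 4 hr at 37C. Medium luciferase was read by coelenterazine luminescence without lysis.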
# [10] = Primary qHTS for inhibitors of nuclear receptor binding SET domain protein 2 (NSD2) in an RCH-ACV wild type WT cells (2C) (AID 1645877); details: activity change, negative = cell killing: at 44.9 µM (top of the series) unless noted; also: nearly all actives have a fitted effect of over 70% in size; also: potency is read from the fitted curve at half-maximal effect
# [11] = biological target: Cytochrome P450 2C19 (Homo sapiens) (UniProt P33261); test: qHTS Assay for Inhibitors and Substrates of Cytochrome P450 2C19 (AID 899); details: recombinant CYP2C19, luciferin-H EGE luminescence; series mostly up to 57.1 µM; also: nearly all actives have a fitted effect of over 60% in size; also: potency is read from the fitted curve at half-maximal effect
# Outline: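 Signal comes from luciferase acting on luciferin released by CYP2C19-mediated hydroxylation of Luciferin-H EGE, 10uM (KM). Assay mix: 5nM enzyme, 50mM KPO4; 60 min at 37C with NADPH regeneration. Data normalized against 57uM ketoconazole.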
# [12] = system: Zika virus NS2B-NS3 protease (linked); test: 384 well plate NINDS AMC confirmatory qHTS for Zika virus inhibitors (AID 1347163); also: nearly all actives have a fitted effect of over 50% in size; also: potency is read from the fitted curve at half-maximal effect
# Outline: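 Linked NS2B-NS3 protease (final 5 nM, 30 nM or 60 nM) was preincubated with compounds (final up to 1 mM) for ~15 minutes. Ac-VKTGKR-AMC substrate (final 30 microM) then reacted for 25 minutes at room temperature in the dark. Fluorescence (ex 355/em 460 nm) was normalized to no-enzyme and no-inhibitor controls.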
# [13] = biological target: Cytochrome P450 3A4 (Homo sapiens) (UniProt P08684); test: qHTS Assay for Inhibitors and Substrates of Cytochrome P450 3A4 (AID 884); details: recombinant CYP3A4, Luciferin-PPXE luminescence; series mostly up to 57.1 µM; also: nearly all actives have a fitted effect of over 50% in size; also: potency is read from the fitted curve at half-maximal effect
# Outline: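 20 nM human CYP3A4 with 25 uM Luciferin-PPXE (at KM) in 200 mM KPO4, preincubated 10 min with compound; NADPH regeneration started a 60 min RT reaction. Luciferin detected by luminescence, normalized to 57 uM ketoconazole as full inhibition.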
# [14] = Validation screen for small molecules that induce DNA re-replication in SW480 colon adenocarcinoma cells (AID 504364); also: potency is read from the fitted curve at half-maximal effect
# Outline: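 250 cells/well; compound pinned in; 48 hr, 37 C, 5% CO2; Hoechst added, 40 min; nuclear fluorescence imaged, 405 ex / 500-530 em; re-replication scored as increase in high-intensity nuclei.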
# [15] = biological target: Metallo-beta-lactamase type 2 (Klebsiella pneumoniae) (UniProt C7C422); test: qHTS to identify inhibitors of the New Delhi Metallo-beta-lactamase (NDM): assay validation screen against the NCATS LOPAC Collection (AID 1794843); also: potency is read from the fitted curve at half-maximal effect
# Outline: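 Nitrocefin hydrolysis (50 uM substrate stock) by NDM-1, 2 nM final, was followed by 485 nm absorbance after compound preincubation; buffer was 50 mM HEPES pH 7.0, 1 uM ZnSO4, 0.01% Tween20.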
# [16] = biological target: phosphoglycerate mutase (Leishmania major) (UniProt Q4Q090); test: qHTS Validation Assay to Find Inhibitors of Phosphoglycerate Mutase (AID 504548); details: Potency: inhibition qHTS; also: potency is read from the fitted curve at half-maximal effect
# Outline: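 Inhibition of L. major PGAM was assessed by Kinase-GloPlus luminescence following a 45-minute room-temperature reaction with enzyme at 1.25nM final.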
# Tags tell the direction and shape of the fitted curve.
# Chain of UniProt Q8WZA2 (Q8WZA2 whole entry, looked up): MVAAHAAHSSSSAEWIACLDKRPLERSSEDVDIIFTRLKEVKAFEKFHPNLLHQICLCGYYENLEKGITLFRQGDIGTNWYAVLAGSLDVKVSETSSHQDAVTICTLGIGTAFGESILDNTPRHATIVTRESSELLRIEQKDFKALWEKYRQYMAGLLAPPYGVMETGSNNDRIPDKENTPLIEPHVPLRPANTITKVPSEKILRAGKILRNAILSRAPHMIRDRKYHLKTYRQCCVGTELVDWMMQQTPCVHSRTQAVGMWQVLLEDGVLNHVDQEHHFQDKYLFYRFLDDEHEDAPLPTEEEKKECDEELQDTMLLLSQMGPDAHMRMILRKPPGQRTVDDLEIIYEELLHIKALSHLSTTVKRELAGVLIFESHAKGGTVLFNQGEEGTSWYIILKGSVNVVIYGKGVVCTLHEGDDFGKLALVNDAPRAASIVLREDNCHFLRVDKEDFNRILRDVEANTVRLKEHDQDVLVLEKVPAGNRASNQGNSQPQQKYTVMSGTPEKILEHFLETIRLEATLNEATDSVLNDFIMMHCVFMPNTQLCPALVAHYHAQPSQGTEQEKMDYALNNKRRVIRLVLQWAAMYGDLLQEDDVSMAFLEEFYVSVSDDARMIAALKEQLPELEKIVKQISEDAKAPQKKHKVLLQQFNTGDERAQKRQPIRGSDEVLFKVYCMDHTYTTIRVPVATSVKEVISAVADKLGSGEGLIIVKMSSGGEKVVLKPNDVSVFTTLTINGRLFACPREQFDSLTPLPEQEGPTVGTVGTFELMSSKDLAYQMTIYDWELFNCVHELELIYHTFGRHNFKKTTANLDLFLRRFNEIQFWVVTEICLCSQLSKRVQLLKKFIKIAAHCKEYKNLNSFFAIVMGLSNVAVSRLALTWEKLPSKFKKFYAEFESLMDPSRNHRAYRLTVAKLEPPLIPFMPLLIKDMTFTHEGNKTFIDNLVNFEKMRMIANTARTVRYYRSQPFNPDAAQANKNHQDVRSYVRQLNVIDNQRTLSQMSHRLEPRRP
# Chain of UniProt O95398 (O95398 whole entry, looked up): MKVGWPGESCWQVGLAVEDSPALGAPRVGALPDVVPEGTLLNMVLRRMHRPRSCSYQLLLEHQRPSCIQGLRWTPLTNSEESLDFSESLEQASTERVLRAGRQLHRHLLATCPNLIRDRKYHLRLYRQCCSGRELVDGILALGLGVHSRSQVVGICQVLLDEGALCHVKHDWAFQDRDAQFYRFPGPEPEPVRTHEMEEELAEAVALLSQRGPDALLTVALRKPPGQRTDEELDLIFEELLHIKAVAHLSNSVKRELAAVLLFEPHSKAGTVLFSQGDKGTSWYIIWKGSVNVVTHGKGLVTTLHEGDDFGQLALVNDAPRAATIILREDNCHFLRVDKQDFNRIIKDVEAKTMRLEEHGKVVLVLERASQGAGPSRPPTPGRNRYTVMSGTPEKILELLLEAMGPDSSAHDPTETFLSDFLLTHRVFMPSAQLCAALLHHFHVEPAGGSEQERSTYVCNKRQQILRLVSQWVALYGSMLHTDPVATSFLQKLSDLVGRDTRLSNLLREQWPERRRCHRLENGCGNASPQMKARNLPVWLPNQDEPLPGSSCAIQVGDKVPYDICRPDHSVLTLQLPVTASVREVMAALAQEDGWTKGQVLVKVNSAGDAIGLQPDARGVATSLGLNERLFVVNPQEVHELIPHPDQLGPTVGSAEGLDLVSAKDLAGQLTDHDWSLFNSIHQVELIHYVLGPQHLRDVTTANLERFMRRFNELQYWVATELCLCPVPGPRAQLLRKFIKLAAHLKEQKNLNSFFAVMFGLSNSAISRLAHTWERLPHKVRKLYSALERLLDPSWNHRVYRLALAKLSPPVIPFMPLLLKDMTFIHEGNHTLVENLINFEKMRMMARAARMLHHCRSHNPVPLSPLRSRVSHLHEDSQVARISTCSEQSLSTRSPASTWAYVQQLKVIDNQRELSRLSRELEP
# Chain of UniProt P09958 (P09958 whole entry, looked up): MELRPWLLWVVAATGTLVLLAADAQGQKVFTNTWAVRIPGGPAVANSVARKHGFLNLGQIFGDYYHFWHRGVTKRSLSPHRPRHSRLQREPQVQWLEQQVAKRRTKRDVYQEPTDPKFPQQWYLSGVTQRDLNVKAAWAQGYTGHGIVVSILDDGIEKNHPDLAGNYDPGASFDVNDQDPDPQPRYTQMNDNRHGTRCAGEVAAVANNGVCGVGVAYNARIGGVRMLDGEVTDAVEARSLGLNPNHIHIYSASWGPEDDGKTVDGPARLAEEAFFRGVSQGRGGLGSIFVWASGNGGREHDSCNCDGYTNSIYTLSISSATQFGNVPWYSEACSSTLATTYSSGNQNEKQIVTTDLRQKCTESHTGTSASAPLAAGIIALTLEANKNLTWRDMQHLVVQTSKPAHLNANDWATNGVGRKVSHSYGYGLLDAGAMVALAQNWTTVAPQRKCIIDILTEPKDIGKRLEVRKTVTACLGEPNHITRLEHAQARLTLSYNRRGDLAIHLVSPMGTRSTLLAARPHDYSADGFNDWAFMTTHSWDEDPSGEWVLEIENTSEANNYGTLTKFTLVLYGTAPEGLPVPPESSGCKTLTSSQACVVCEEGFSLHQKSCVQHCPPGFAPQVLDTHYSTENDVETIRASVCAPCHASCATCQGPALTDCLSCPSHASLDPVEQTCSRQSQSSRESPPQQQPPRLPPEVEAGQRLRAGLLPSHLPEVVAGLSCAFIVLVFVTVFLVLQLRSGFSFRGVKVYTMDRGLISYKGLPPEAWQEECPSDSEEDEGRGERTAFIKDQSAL
# Chain of UniProt P10635 (P10635 whole entry, looked up): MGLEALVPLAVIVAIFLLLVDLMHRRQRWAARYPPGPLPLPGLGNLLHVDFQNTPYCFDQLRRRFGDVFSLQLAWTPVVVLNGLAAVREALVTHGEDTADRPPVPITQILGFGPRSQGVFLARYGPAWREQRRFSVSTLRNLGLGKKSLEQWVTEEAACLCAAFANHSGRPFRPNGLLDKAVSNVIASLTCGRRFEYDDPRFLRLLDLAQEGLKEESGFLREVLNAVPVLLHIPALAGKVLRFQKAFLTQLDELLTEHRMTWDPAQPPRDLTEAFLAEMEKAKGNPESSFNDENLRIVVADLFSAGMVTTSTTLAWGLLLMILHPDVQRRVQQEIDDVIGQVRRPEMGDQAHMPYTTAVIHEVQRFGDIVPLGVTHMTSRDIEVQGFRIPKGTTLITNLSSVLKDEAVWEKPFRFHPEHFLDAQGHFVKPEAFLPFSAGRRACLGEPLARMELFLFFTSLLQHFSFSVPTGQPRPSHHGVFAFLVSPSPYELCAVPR
# Chain of UniProt P08684 (P08684 whole entry, looked up): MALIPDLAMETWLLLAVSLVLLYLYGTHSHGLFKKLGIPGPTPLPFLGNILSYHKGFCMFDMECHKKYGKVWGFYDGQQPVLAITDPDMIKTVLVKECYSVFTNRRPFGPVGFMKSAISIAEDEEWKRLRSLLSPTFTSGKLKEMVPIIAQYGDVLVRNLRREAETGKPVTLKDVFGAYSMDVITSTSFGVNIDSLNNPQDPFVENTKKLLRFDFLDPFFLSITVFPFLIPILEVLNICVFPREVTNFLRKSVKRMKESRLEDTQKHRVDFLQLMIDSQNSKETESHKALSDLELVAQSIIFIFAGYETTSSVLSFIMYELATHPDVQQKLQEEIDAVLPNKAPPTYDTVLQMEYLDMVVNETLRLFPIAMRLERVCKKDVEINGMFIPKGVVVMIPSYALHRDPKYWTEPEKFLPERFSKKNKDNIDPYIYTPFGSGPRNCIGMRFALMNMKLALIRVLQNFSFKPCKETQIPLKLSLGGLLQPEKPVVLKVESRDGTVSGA
# Chain of UniProt P33261 (P33261 whole entry, looked up): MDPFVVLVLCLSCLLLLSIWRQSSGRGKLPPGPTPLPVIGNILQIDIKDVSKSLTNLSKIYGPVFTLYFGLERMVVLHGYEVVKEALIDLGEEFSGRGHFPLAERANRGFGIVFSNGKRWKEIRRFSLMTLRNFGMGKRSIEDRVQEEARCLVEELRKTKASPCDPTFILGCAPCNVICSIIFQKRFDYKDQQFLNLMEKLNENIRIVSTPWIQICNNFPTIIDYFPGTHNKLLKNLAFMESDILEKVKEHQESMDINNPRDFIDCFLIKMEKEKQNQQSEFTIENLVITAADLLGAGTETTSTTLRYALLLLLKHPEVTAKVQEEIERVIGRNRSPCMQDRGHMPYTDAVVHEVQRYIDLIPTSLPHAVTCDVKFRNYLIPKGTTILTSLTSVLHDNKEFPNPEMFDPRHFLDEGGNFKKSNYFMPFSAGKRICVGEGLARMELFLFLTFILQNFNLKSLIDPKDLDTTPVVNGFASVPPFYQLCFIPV
# Chain of UniProt P63096 (P63096 whole entry, looked up): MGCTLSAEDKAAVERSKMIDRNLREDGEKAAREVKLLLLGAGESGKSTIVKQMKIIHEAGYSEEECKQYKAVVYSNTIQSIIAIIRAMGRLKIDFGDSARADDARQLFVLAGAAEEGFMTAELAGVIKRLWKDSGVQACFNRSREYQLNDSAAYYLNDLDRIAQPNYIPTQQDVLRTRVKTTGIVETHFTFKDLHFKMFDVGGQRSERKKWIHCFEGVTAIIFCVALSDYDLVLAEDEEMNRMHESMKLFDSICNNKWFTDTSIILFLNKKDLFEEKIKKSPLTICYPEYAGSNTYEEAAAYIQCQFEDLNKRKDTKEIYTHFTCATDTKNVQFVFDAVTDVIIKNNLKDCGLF
# Chain of UniProt C7C422 (C7C422 whole entry, looked up): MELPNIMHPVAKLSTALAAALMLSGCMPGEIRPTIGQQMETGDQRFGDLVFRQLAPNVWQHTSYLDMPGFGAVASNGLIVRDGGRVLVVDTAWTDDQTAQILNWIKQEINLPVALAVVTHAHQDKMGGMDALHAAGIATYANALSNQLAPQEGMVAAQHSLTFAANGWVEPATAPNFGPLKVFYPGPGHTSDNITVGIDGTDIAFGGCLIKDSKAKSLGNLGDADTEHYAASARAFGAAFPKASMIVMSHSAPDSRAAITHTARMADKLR
compound,measurement,setting,value
CNC(=O)c1cc2c(cn1)[nH]c1ccccc12,Potency,[1],inactive
same,Potency,[2],"inconclusive: 20 µM [inhibitor, partial curve]"
same,Potency,[3],inactive
same,Potency,Furin (Homo sapiens),active: 24.1 µM
O=C(O)Cc1ccc(O)c(O)c1,Potency,[4],"inconclusive: 25.1 µM [inhibitor, single point]"
Cn1cnc2c(NCc3ccccc3)nc(NCCO)nc21,Potency,[5],"inconclusive: 32.6 µM [inhibitor, partial curve, poor fit]"
O=[N+]([O-])c1cccc2c(Br)[nH]nc12,Potency,[1],"inconclusive: 0.251 µM [inhibitor, full curve]"
CN1C2CCC1CC(OC(=O)c1c[nH]c3ccccc13)C2 (centres undefined),Potency,[6],inactive
Nc1ncnc2c1nc(Br)n2C1OC2COP(=O)(O)O[C@@H]2C1O (some centres undefined),Potency,[7],active: 3.14 µM
same,Potency,[8],active: 5.55 µM and active: 3.93 µM
N#C/C(=C\c1ccc(O)c(O)c1)C(=O)NCCCNC(=O)/C(C#N)=C/c1ccc(O)c(O)c1,Potency,[9],active: 20 µM
same,Potency,[5],"inconclusive: 29.1 µM [inhibitor, single point]"
same,Potency,[10],"inconclusive: 29.1 µM [inhibitor, single point]"
Cc1nc(N=Nc2cc(S(=O)(=O)O)c3cc([N+](=O)[O-])cc(S(=O)(=O)O)c3c2)c(COP(=O)(O)O)c(C=O)c1O,Potency,[1],inactive
same,Potency,Furin (Homo sapiens),"inconclusive: 41.8 µM [inhibitor, partial curve, poor fit] and inconclusive: 21 µM [inhibitor, partial curve]"
Cn1c(=O)c2[nH]c(-c3ccc(S(=O)(=O)O)cc3)nc2n(C)c1=O,Potency,[11],inactive
Cc1nc(N=Nc2ccc(S(=O)(=O)O)cc2S(=O)(=O)O)c(COP(=O)(O)O)c(C=O)c1O,Potency,[11],"inconclusive: 0.0126 µM [inhibitor, full curve, poor fit]"
same,Potency,[3],active: 3.98 µM
same,Potency,[12],active: 39.8 µM
C[C@H](O)C(=O)C1=Nc2c(nc(N)[nH]c2=O)NC1,Potency,[4],"inconclusive: 39.8 µM [inhibitor, single point]"
same,Potency,[13],"inconclusive: 0.316 µM [inhibitor, partial curve]"
O=[N+]([O-])c1cccc2cn[nH]c12,Potency,[11],"inactive and inconclusive: 1.58 µM [inhibitor, full curve, poor fit]"
Nc1nc2ccc(Cl)cc2c2nc(-c3ccco3)nn12,Potency,[13],"inconclusive: 7.94 µM [inhibitor, full curve]"
same,Potency,[6],active: 1.46 µM
same,Potency,Furin (Homo sapiens),"inconclusive: 27 µM [inhibitor, single point]"
same,Potency,[12],inactive
C=CCN1CCc2c(cc(O)c(O)c2Br)[C@@H](c2ccccc2)C1,Potency,[14],"inconclusive: 29.1 µM [activator, single point]"
same,Potency,Furin (Homo sapiens),inactive
same,Potency,[12],"inconclusive: 31.6 µM [inhibitor, partial curve, poor fit]"
NCCCCN,Potency,[13],inactive
C=C(C)[C@@H]1CC[C@]2(C(=O)O)CC[C@]3(C)[C@H](CC[C@@H]4[C@@]5(C)CC[C@H](O)C(C)(C)[C@@H]5CC[C@]43C)[C@@H]12,Potency,[10],inactive
Cc1ccccc1/C=C/C1=NCCN1,Potency,[14],"inconclusive: 23.1 µM [activator, single point]"
same,Potency,[6],"inconclusive: 14.6 µM [activator, partial curve, poor fit]"
same,Potency,[9],"inconclusive: 39.8 µM [inhibitor, single point]"
same,Potency,[15],"inconclusive: 1.58 µM [inhibitor, full curve]"
CCCc1c(OCCCOc2ccc(OCC(=O)O)cc2)ccc(C(C)=O)c1O,Potency,[5],"inconclusive: 33.2 µM [inhibitor, partial curve, poor fit]"
same,Potency,[7],"inconclusive: 67.5 µM [inhibitor, partial curve, poor fit] and inconclusive: 55.9 µM [inhibitor, partial curve]"
same,Potency,[8],"inconclusive: 26.9 µM [inhibitor, full curve, poor fit]"
CC(C)NC[C@H](O)c1ccc(O)c(O)c1,Potency,[16],"inconclusive: 33.8 µM [inhibitor, partial curve, poor fit]"
COc1cc(N)c(Cl)cc1C(=O)OCCN1CCCCC1,Potency,[14],inactive
same,Potency,[16],"inconclusive: 0.0536 µM [activator, full curve, poor fit]"
CC1(C)C(\C=C/C=C\C=C/C=C2/N(CCCCS(=O)(=O)O)c3ccc4ccccc4c3C2(C)C)=[N+](CCCCS(=O)(=O)[O-])c2ccc3ccccc3c21,Potency,Furin (Homo sapiens),"inconclusive: 21 µM [inhibitor, full curve]"
same,Potency,[12],active: 39.8 µM
CC1(C)O[C@@]2(C)CC[C@@H]1C[C@@H]2OC1OC(CO)C(O)C(O)C1O (some centres undefined),Potency,[5],inactive

# From PubChem BioAssay (NCATS)
